PubChem BioAssay AID540317 (National Center for Advancing Translational Sciences (NCATS), 2011)
The campaign covered roughly 390,000 compounds. About 2,200 (0.56%) were called active. This list was built around the results that the source calls inconclusive (neither active nor inactive); the mix of calls is not that of the screen. The call rests on the fitted dose curve; in most records, active means well fitted inhibition curve with a large enough effect; inconclusive means small, poorly fitted or top-dose-only effect; inactive means no such curve, though single readings can be large or run the other way. Potencies of inconclusive entries are doubtful fits and often do not repeat.

Each compound was assayed against Chromobox protein homolog 1 (Homo sapiens) (UniProt P83916) (assay: HTS for Inhibitors of HP1-beta Chromodomain Interactions with Methylated Histone Tails). Details: AlphaScreen HP1-beta / biotin-H3K9me3 peptide binding; series mostly up to 114 µM.
Procedure, shortened: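 AlphaScreen: HP1-beta (50 nM) preformed 30 min with biotin-H3(1-18)K9me3 peptide (50 nM) in PBS pH 7.4, 0.01% Tween-20. Compound added for 30 min at RT, then streptavidin donor/nickel chelate acceptor beads (10 ug/mL) for 30 min.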
Further: nearly all actives have a fitted effect of over 70% in size.
Potency means the concentration at half of the fitted maximal effect; tags describe the fitted curve by direction and shape.

Sequence of UniProt P83916 (P83916 whole entry, looked up): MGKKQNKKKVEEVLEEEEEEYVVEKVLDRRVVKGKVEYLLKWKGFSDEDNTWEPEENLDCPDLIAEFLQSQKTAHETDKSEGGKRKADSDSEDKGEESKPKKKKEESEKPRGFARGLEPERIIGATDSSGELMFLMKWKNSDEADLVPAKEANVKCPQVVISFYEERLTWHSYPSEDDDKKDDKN

Row | Structure (SMILES) | Potency
1 | CCOC(=O)c1cc2c(ccn2C)n1CC(=O)N1CCCC(C)C1 (configuration not stated) | inactive
2 | Cc1oc(-c2ccc(F)cc2)nc1CN(Cc1ccccn1)CC1CCCO1 (configuration not stated) | inconclusive: 7.94 µM [inhibitor, full curve]
3 | COc1ccc(-c2n[nH]c(=S)n2Cc2ccccc2)cc1OC | inconclusive: 89.1 µM [inhibitor, single point]
4 | O=C(CNc1ccccc1)NNC1=NCCC1 | inactive
5 | O=C(CSc1nnc(Cc2ccccc2)n1Cc1ccco1)NC1CCCC1 | inactive
6 | C[C@H](NC(=O)[C@@H]1Cc2ccccc2CN1)C(=O)Nc1ccc2c(c1)OCCO2 | inactive
7 | COc1ccc(OC)c(C(=O)c2c(C)oc3cc(Br)c(O)c(CN(C)C)c23)c1 | inconclusive: 89.1 µM [inhibitor, single point]
8 | CC(C)NC(=O)C1CCC(Cn2c(=O)c3sccc3n(CC(=O)N3CCCC3)c2=O)CC1 (configuration not stated) | inactive
9 | CC1(c2ccccc2Cl)NC(=O)N(CC(=O)Nc2ccccc2OC(F)F)C1=O (configuration not stated) | inconclusive: 89.1 µM [inhibitor, single point]
10 | O=C(NC(=S)Nn1cnnc1)c1cccc(Br)c1 | inactive
11 | CCN(c1ccc(NC(=O)COC(=O)c2cccs2)cc1)C(C)C | inconclusive: 35.5 µM [inhibitor, partial curve, poor fit]
12 | CCN1CCN(c2cc(C)c3cc(NC(=S)N(C)Cc4ccccc4)ccc3n2)CC1 | inactive
13 | Cc1cc(N2CCOCC2)nc2ccc(NC(=S)N3CCN(Cc4ccccc4)CC3)cc12 | inconclusive: 44.7 µM [inhibitor, partial curve]
14 | CN(C)C(=O)c1ccc(NC(=O)c2cc(-n3cnnc3)ccc2Cl)cc1 | inconclusive: 39.8 µM [inhibitor, single point]
15 | Cc1ccc(OCC(=O)c2c(N)n(C)c(=O)n(C)c2=O)c([N+](=O)[O-])n1 | active: 20 µM
16 | CC(=NNC(=S)N1CC2CCC(CC2)C1)c1ccncn1 | inconclusive: 8.91 µM [inhibitor, full curve]
17 | CN(C)CCOCCOc1ccc(Cl)cc1C(C)(C)C | inconclusive: 56.2 µM [inhibitor, single point]
18 | CC(=O)Nc1ccc(-c2nnn(CC(=O)c3ccccc3)n2)cc1Cl | inconclusive: 39.8 µM [inhibitor, partial curve, poor fit]
19 | OC(COC(c1ccc(F)cc1)c1ccc(F)cc1)CN1CCCC(C(F)(F)F)C1 (configuration not stated) | inconclusive: 39.8 µM [inhibitor, partial curve]
20 | CC1CCN(CCCNC(=O)CN2C(=O)CSc3ccc(S(=O)(=O)N4CCC(C)CC4)cc32)CC1 | inconclusive: 35.5 µM [inhibitor, partial curve]
21 | COc1cccc(N2CC(O)Cn3c2nc2c3c(=O)n(CCCc3ccccc3)c(=O)n2C)c1 (configuration not stated) | inactive
22 | COc1ccccc1CN1CCCCCC1 | inconclusive: 70.8 µM [inhibitor, single point]
23 | Cc1ccc(NC(=O)/C(C#N)=C/c2ccccc2Cl)cc1C | inactive
24 | O=C1CCCN2N=C(SCC(=O)Nc3ccc(F)cc3F)SC2=N1 | inactive

Row | Structure (SMILES) | Potency
25 | O=C(NN(C(=O)c1ccccc1)c1ccccc1)c1ccccc1 | inconclusive: 70.8 µM [inhibitor, partial curve]
26 | Cc1ccc(S(=O)(=O)N2CCN(c3ccc(C(=O)N4CCOCC4)cc3[N+](=O)[O-])CC2)cc1 | inactive
27 | COc1cc(/C=N/n2c(-c3cc(C)[nH]n3)n[nH]c2=S)cc(OC)c1O | inconclusive: 89.1 µM [inhibitor, single point]
28 | CCc1ccc(OCCOCCN2CCN(C)CC2)cc1 | inconclusive: 14.1 µM [inhibitor, partial curve, poor fit]
29 | Cc1nc2ncccn2c1-c1csc(Nc2ccc(N(C)C)cc2)n1 | inconclusive: 50.1 µM [inhibitor, partial curve, poor fit]
30 | COc1cc(/C=C2/C(=O)N(c3ccc(C)c(C)c3)N=C2C)cc([N+](=O)[O-])c1O | inconclusive: 15.8 µM [inhibitor, full curve]
31 | C1=CC2c3ccccc3NC(c3ccncc3)C2C1 (configuration not stated) | inconclusive: 63.1 µM [inhibitor, single point]
32 | COc1ccc(N2CCN(C(=O)c3ccc(C(C)(C)C)cc3)CC2)cc1 | inconclusive: 89.1 µM [inhibitor, single point]
33 | COc1ccc(CNC(=O)CN(c2cc(C(F)(F)F)ccc2Cl)S(C)(=O)=O)cc1 | inactive
34 | CCn1c(C)c(C)c2cc(C(=O)NCc3ccc(N(C)C)cc3)ccc21 | inconclusive: 14.1 µM [inhibitor, full curve]
35 | c1cncc(Nc2nc(-c3cccs3)cs2)c1 | inconclusive: 50.1 µM [inhibitor, partial curve]
36 | CCS(=O)(=O)N1CCN(Cc2ccncc2)CC1 | active: 50.1 µM
37 | Cc1ccc(C(=O)c2oc3ccccc3c2NC(=O)c2cc(-c3ccc(Cl)cc3)on2)cc1 | inactive
38 | N#Cc1ccccc1OCCCN1CCC(Cc2ccccc2)CC1 | inconclusive: 50.1 µM [inhibitor, single point]
39 | COc1ccc2c(CCNC(=O)Nc3ccccc3)c[nH]c2c1 | inactive
40 | O=C(c1ccccc1)c1ccc(OCC(O)CNC2CCCc3ccccc32)cc1 (configuration not stated) | inconclusive: 28.2 µM [inhibitor, single point]
41 | CCCC(=O)n1nc(-c2ccccc2)nc1SC | inactive
42 | CC(OC(=O)CCOc1ccccc1)C(=O)Nc1ccc(Cl)cn1 (configuration not stated) | inactive
43 | Oc1ccccc1C=NN1CCCCCC1 | inconclusive: 56.2 µM [inhibitor, partial curve, poor fit]
44 | CC1=CCC(C(=O)O)C(C(=O)NC2CCCCC2)C1 (configuration not stated) | inconclusive: 15.8 µM [inhibitor, full curve, poor fit]
45 | COc1ccccc1CNCC(=O)NCc1ccc(C)cc1 | inconclusive: 20 µM [inhibitor, full curve]
46 | COc1cccc(N=Nc2ccc3cccnc3c2O)c1 | inconclusive: 12.6 µM [inhibitor, full curve]
47 | CCOc1ccccc1CN1CCNC(=O)C1CC(=O)NC1CCCCCC1 (configuration not stated) | inactive
